Assay results reported in the BET-seq Pho4 binding data (Le et al. 2018).
This is one part of the list. Values were computed here from the reads of four pooled replicates and scatter widely.

molecular target: T1, Pho4 (S. cerevisiae) (UniProt P07270); assay: relative binding free energy (BET-seq); higher = weaker binding; conditions: reference: library average
T1 sequence: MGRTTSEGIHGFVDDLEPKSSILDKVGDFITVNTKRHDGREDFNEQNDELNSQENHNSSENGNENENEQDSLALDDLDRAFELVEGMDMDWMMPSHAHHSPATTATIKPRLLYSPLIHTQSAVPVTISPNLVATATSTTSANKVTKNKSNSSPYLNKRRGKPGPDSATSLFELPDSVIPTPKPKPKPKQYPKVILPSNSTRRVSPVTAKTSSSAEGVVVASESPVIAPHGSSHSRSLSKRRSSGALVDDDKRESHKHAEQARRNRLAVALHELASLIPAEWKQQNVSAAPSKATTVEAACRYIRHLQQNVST

Relative binding free energy, 0.03 kcal/mol:
CAAGTCACGTGTGTTT
GCAGACACGTGTTTGT
TTTCGCACGTGATGAT
GGAATCACGTGGTGCG
GTATGCACGTGTTGAG

Relative binding free energy, -0.16 kcal/mol:
ACGGGCACGTGCTGGA
TACAACACGTGGTGTG
GTCAGCACGTGGGATT

Relative binding free energy, 0.26 kcal/mol:
AGAATCACGTGATTTA
ATTTCCACGTGAGGTG

Relative binding free energy, 0.07 kcal/mol:
AAGGTCACGTGCGGAG
TGGAGCACGTGAGCTG

Relative binding free energy, 0.23 kcal/mol:
GTTTACACGTGGATGG
TAGGTCACGTGAAGGT
GTGTTCACGTGGCGGG
AAGCTCACGTGTGGGT
TTAATCACGTGATTGT
AGTATCACGTGTGGTT

Relative binding free energy, -0.32 kcal/mol:
CTTCGCACGTGGGTGT

Relative binding free energy, -0.15 kcal/mol:
TTTAACACGTGCTAGG
TGATGCACGTGGTATT
AGGTGCACGTGGTCAA

Relative binding free energy, 0.04 kcal/mol:
TTCTGCACGTGGTTTC
TCGGACACGTGGCGGT

Relative binding free energy, 0.41 kcal/mol:
GTGGACACGTGAGGCC
GAACTCACGTGGATGT

Relative binding free energy, -0.11 kcal/mol:
GCTAACACGTGGGGGA
GGAGGCACGTGGCAGG
ATTAGCACGTGGAGCG

Relative binding free energy, 0.4 kcal/mol:
ATGGTCACGTGAAAAG

Relative binding free energy, 0.24 kcal/mol:
ATAGACACGTGTGGGC

Relative binding free energy, -0.05 kcal/mol:
TATTGCACGTGGTGTA
TCAGGCACGTGACGGG
GTGGGCACGTGTTTTC
TATTACACGTGGCTTT

Relative binding free energy, 0.57 kcal/mol:
GATTTCACGTGTCAGA

Relative binding free energy, 0.35 kcal/mol:
AGGTTCACGTGATTGC

Relative binding free energy, 0.19 kcal/mol:
GTGGACACGTGTGAGA
GAGGTCACGTGGAGGG
TAGCTCACGTGGGATT
GCGGGCACGTGTCGGC
GGTGGCACGTGTCTTC
AAGGTCACGTGATGGG

Relative binding free energy, 0.05 kcal/mol:
TATGTCACGTGTGGCG
AAGTACACGTGGTGAG
AGCTTCACGTGTTGTG
TGGATCACGTGGGGTG
TTACGCACGTGTAAGG

Relative binding free energy, 0.22 kcal/mol:
TGGATCACGTGTATCT
TTTATCACGTGGACTG

Relative binding free energy, -0.22 kcal/mol:
TGCGGCACGTGGTTCT

Relative binding free energy, 0.21 kcal/mol:
GTTTACACGTGGAGGA
TGAGGCACGTGAAGAG
GGTATCACGTGGTTTA
TGCTCCACGTGAGGTT
AGGCGCACGTGAAGTT

Relative binding free energy, -0.12 kcal/mol:
ATTGCCACGTGGTGGA
TGTTGCACGTGTGCCG
AGTAACACGTGGTCGG
CGCTGCACGTGGGAGT
ACGTGCACGTGTTTGT

Relative binding free energy, -0.13 kcal/mol:
TGTAGCACGTGTGTCT
CTGAGCACGTGGGTTG
ATGGGCACGTGGTTGA
GCAGGCACGTGTGGAG
CTTGCCACGTGTGTGG

Relative binding free energy, -0.03 kcal/mol:
GTTAGCACGTGTGGAC
TTATGCACGTGCAGTT
GTTTGCACGTGCGTGC
TGGGTCACGTGGCCGA
AATGGCACGTGTTGTT
AGTCACACGTGGCGGG
TGGAGCACGTGTGGGT

Relative binding free energy, -0.24 kcal/mol:
ATAGGCACGTGGTGTG
CTTGCCACGTGGGTGG

Relative binding free energy, 0.32 kcal/mol:
TGGTTCACGTGTTTTT
GTTTTCACGTGCAGGC
AAGGTCACGTGAGAAG

Relative binding free energy, -0.04 kcal/mol:
ATGGTCACGTGCTATG
ATGCGCACGTGTGGCT
GGGCCCACGTGTGTTG
ATGTGCACGTGTCTCG
AGGGGCACGTGATCGA
GTGAGCACGTGTTACT
GCTTGCACGTGTGTTG
TAAAGCACGTGTGCTG
GTGTCCACGTGGGTGG
GCCGGCACGTGGAAGG

Relative binding free energy, -0.37 kcal/mol:
TAACGCACGTGGGTTT

Relative binding free energy, 0.28 kcal/mol:
GGGGTCACGTGAATAG
GTCCTCACGTGAGGGG
TAATGCACGTGAGGAA
GGCTTCACGTGGTATT
AGGTGCACGTGAGAAA

Relative binding free energy, 0.46 kcal/mol:
GATTTCACGTGAATGG
AAGTTCACGTGAACGT

Relative binding free energy, 0.02 kcal/mol:
GTTCCCACGTGTTGGT
GAATGCACGTGTCTTG
TTATCCACGTGTGTAT
TTCTACACGTGGATGG

Relative binding free energy, 0.13 kcal/mol:
TGTGTCACGTGTCACT
TGAGTCACGTGTGTTG
TGGGACACGTGTATAT

Relative binding free energy, 0.11 kcal/mol:
GTGGTCACGTGCTTCG
TTAGTCACGTGATCAT

Relative binding free energy, 0.18 kcal/mol:
AGTTACACGTGATAAG
CCTTTCACGTGGTATT
ACAAGCACGTGAGTTG
GGATTCACGTGGGCAT
TTGATCACGTGATAGT
GAGGTCACGTGTTAAG
TGGGTCACGTGCAATT
GGATACACGTGGGAGC
ATAAACACGTGATTGA

Relative binding free energy, -0.08 kcal/mol:
TGTAACACGTGCGCGT
GGGCGCACGTGGTTGG
AGGAGCACGTGTCTGT
TATGGCACGTGATCTT
AGGCGCACGTGGGAAA
ATTGGCACGTGGATTT

Relative binding free energy, 0.08 kcal/mol:
GGTGGCACGTGACGTA
TAATGCACGTGTGGTT
TTGGACACGTGTTCAG
TTCATCACGTGTTGTC
CTTATCACGTGGTGTT

Relative binding free energy, 0.2 kcal/mol:
AAAGTCACGTGACGGG
GTTTGCACGTGAATAT
GTGGACACGTGATAGT

Relative binding free energy, 0.3 kcal/mol:
CACTTCACGTGGGGGA

Relative binding free energy, 0.14 kcal/mol:
TTCATCACGTGTGGCG
CAGGGCACGTGAGTGT

Relative binding free energy, 0.09 kcal/mol:
TTGATCACGTGGGCGT
TCTTACACGTGGTGTC
CTGGTCACGTGGAGCT
TGAATCACGTGCTGGG

Relative binding free energy, 0.12 kcal/mol:
GATTACACGTGGGGGT
GAGTGCACGTGAGAGG
GATTACACGTGTGTAT
TCATTCACGTGGTGTT

Relative binding free energy, -0.14 kcal/mol:
TTCGGCACGTGGCGGG
GATAGCACGTGGTGCG
AGTAGCACGTGGAGGA

Relative binding free energy, -0.2 kcal/mol:
AGAGACACGTGGGATG
CGCCGCACGTGGGTTG
TTCCGCACGTGGTGTT
GTGAGCACGTGGTTGG

Relative binding free energy, -0.09 kcal/mol:
CGGAGCACGTGTTGGT
GTCGACACGTGGGGTT
GCGGACACGTGGGAGG

Relative binding free energy, -0.27 kcal/mol:
AGTACCACGTGGTGTT

Relative binding free energy, 0.06 kcal/mol:
GTGGGCACGTGTGGGT
TCTGGCACGTGTCGGT
TGGGTCACGTGCGTTC
TTCATCACGTGGTCGT
CAGGACACGTGGATGG
TCATACACGTGTGTAT

Relative binding free energy, 0.16 kcal/mol:
TGTTACACGTGATATG
TGTCGCACGTGAAGGA
TAGTTCACGTGTGTGA

Relative binding free energy, 0.29 kcal/mol:
GCATTCACGTGGTGTT
GTGAACACGTGACGTT
AGCTTCACGTGTTCTG
AGAAACACGTGAAGTG

Relative binding free energy, -0.28 kcal/mol:
GTTGGCACGTGGGCAC

Relative binding free energy, -0.1 kcal/mol:
TCGTGCACGTGCGGAG
TCGTGCACGTGTATGT
TACACCACGTGGTGTG

Relative binding free energy, -0.01 kcal/mol:
CCGGACACGTGTTGGG
GGGTGCACGTGGGAGT
GGGGGCACGTGTACTG
CATTGCACGTGCGTTG
GTTAGCACGTGCTGGT
TATGTCACGTGCTGGA
TGGGGCACGTGATTAC

Relative binding free energy, 0.39 kcal/mol:
GTATTCACGTGAGGAA
GGGTACACGTGAAATT
GAGCTCACGTGTTATG

Relative binding free energy, -0.17 kcal/mol:
ACCTGCACGTGGTGTG
TGGGGCACGTGGCCGC
ATGGGCACGTGTCAGG
TATCGCACGTGGTGTG

Relative binding free energy, -0.02 kcal/mol:
GGTGCCACGTGTCGGT
GGGCCCACGTGTTGGG

Relative binding free energy, 0.25 kcal/mol:
GCTTTCACGTGTAGTA
GAGGTCACGTGCGGGA
GTATACACGTGTAGAT
ATGTTCACGTGTAGGA
GCTGTCACGTGAGTGG
TGGATCACGTGATAGG

Relative binding free energy, -0.19 kcal/mol:
TTCGACACGTGGGGGA
AGGTGCACGTGGCGGT
AGTAGCACGTGCGGAT
TTATCCACGTGGGGGG

Relative binding free energy, 0 kcal/mol:
TGTGTCACGTGGGGGC
GGATGCACGTGGTAGC
CTTGTCACGTGGTATG
TGAGACACGTGATGGA
ATGTACACGTGGTTCG
TTGTGCACGTGGTGGC
AAGTACACGTGGGTTG

Relative binding free energy, 0.15 kcal/mol:
TTTGGCACGTGAATTT
TTCGGCACGTGAGTGT
AATTTCACGTGAGGCT

Relative binding free energy, 0.34 kcal/mol:
GGTTTCACGTGAGTTC
TCTGTCACGTGAGATT

Relative binding free energy, -0.07 kcal/mol:
ACGGGCACGTGCTTGT
GTGAGCACGTGGTGTG
AGAGGCACGTGTCGGT
CTGTCCACGTGGTTGT
AAAGACACGTGGTGGG

Relative binding free energy, 0.01 kcal/mol:
GTAGGCACGTGTTCAT
TTTTACACGTGTTATA
TACGACACGTGGCGGG
CTTTACACGTGGGATG
TGATACACGTGTTGGG

Relative binding free energy, 0.17 kcal/mol:
GTCAGCACGTGATGTT
GGTATCACGTGGTGTG
AGAGTCACGTGGATGT
GATTACACGTGTGATT
GTTCGCACGTGTGGCA
CTGATCACGTGTGGGC

Relative binding free energy, 0.27 kcal/mol:
TGTTTCACGTGGACAT
CGTTTCACGTGACGGT
GGGTACACGTGTTGGA
TTAGTCACGTGCATTT
TTATGCACGTGAATTT
GTTATCACGTGTGGTA

Relative binding free energy, 0.1 kcal/mol:
TGTGACACGTGACGTA
CTGAACACGTGTTTTT
TTTGACACGTGAGTGA
